# Hit rate of the full screen: of about 360,000 compounds, about 740 (0.21%) were called active. The shares of active, inactive and inconclusive entries below differ from those in the screen. The call rests on the fitted dose curve; in most records, active means well fitted inhibition curve with a large enough effect; inconclusive means small, poorly fitted or top-dose-only effect; inactive means no such curve, though single readings can be large or run the other way. Potencies of inconclusive entries are left out as doubtful fits.
# Test system: Plasmodium falciparum AMA1 (3D7) - RON2 peptide interaction
# Assay: qHTS for Inhibitors of AMA1-RON; Towards Development of Antimalarial Drug Lead: Primary Screen; further: nearly all actives have a fitted effect of over 45% in size;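 on activity change, negative = inhibition: 0% = vehicle wells and -100% = peptide control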
# Details: AlphaScreen AMA1-biotinylated RON2 peptide binding; activity change, negative = inhibition: at 58.2 µM (top of the series) unless noted
# Summary of the method: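 AMA1 (3D7) with his tag at 25 nM final met compounds first, then biotinylated RON2 peptide at 25 nM; detection used donor plus acceptor beads, 10 µg/mL apiece, read by AlphaScreen after 30 min at room temperature.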
# Potency means the concentration at half of the fitted maximal effect; tags describe the fitted curve by direction and shape.
SMILES,Potency,"activity change, negative = inhibition"
Oc1ccc(Nc2ccc3ccccc3c2)cc1,active: 14.1 µM,
CN(C)CCCNC(=O)c1ccc(/C=N/O)nc1,,inactive: 33.9%
CN(C)c1ccc(CC(=O)N2CCCC(c3cc(C(=O)Nc4ccc5c(c4)OCO5)no3)C2)cc1 (stereo not drawn),"inconclusive [inhibitor, partial curve]",
c1ccc(CN2CCN(C(c3ccccc3)c3ccccc3)CC2)cc1,"inconclusive [inhibitor, partial curve]",
CCN(CC)Cc1c(O)c(Cl)cc2c3c(c(=O)oc12)CCCC3,"inconclusive [inhibitor, single point]",
Cc1nnc(SCC(=O)Nc2ccc(C(N)=O)cc2)n1-c1ccccc1,"inconclusive [inhibitor, single point]",
CCOC(=O)C1=CC[C@]2(C)c3c(c4ccccc4n3C)C(=O)C1N2C,,inactive: 6.4%
CC(=O)c1cccc(N=c2scc(-c3ccc(S(=O)(=O)N4CCOCC4)cc3)n2CCO)c1,"inconclusive [inhibitor, partial curve]",
O=C(CN1CCCCCC1)NC(c1ccccc1)c1ccccc1,"inconclusive [inhibitor, single point]",
Cc1ccc(S(=O)(=O)Cn2nnnc2C(C(C)C)N2CCSCC2)cc1 (stereo not drawn),,inactive: 1.33%
Oc1ccc(Br)cc1/C=N/N1CCN(Cc2ccccc2)CC1,"inconclusive [inhibitor, single point]",
CC(C)C(=O)Nc1ccccc1N1CCN(S(C)(=O)=O)CC1,"inconclusive [inhibitor, full curve]",
Cn1cnnc1SCC(=O)Nc1sc2c(c1C(N)=O)CCC2,"inconclusive [inhibitor, single point]",
O=C(NC1CCCCC1)c1ccc(S(=O)(=O)NCc2ccco2)cc1,,inactive: -3.42%
CCOC(=O)C1CCCN(C(=O)Cn2cnc3sc(C)c(S(=O)(=O)N4CCOCC4)c3c2=O)C1 (stereo not drawn),,inactive: 21.4%
O=C(CN(Cc1ccccc1Cl)C(=O)CNS(=O)(=O)c1ccc(F)cc1)NCC1CCCO1 (stereo not drawn),,inactive: -7.49%
C/C(=N\Nc1nc2ccccc2[nH]1)c1ccc(N2CCOCC2)cc1,"inconclusive [inhibitor, partial curve]",
COc1cc(OC)c(C=CC(=O)c2ccccc2O)c(OC)c1,"inconclusive [inhibitor, full curve]",
COc1ccc(OC)c(CN2CCN(Cc3cccc4ccccc34)CC2)c1,"inconclusive [inhibitor, partial curve]",
COc1cc(C(C(=O)NC2CCCCC2)N(CCN2CCOCC2)C(=O)C2COc3ccccc3O2)cc(OC)c1OC (stereo not drawn),,inactive: -7.99%
O=[N+]([O-])c1ccc(-c2nc(-c3cccs3)c(-c3cccs3)[nH]2)cc1,"inconclusive [inhibitor, single point]",
Cc1nc2cc(NCc3nc4ccccc4n3Cc3ccccc3)ccc2n1C,"inconclusive [inhibitor, single point]",
COc1ccc(CCC(=O)N2CCCC(Nc3ccc(C)c(C)c3)C2)cc1OC (stereo not drawn),,inactive: -21.7%

SMILES,Potency,"activity change, negative = inhibition"
O=C(COC(=O)CC1CC2CCC1C2)Nc1ccccc1[N+](=O)[O-] (stereo not drawn),"inconclusive [inhibitor, partial curve]",
c1ccc(Nc2cccc(Nc3ccccc3)c2)cc1,"inconclusive [inhibitor, partial curve]",
Cc1ccc(-c2nn(-c3ccccc3)cc2C(=O)N2CCN(c3ccccn3)CC2)cc1,"inconclusive [inhibitor, single point]",
CNc1nc(NCc2ccc(N(C)C)cc2)c2sccc2n1,active: 20 µM,
Cc1ccc(S(=O)(=O)N(C(=O)c2ccncc2)c2ccc(OC(=O)c3ccncc3)c3ccccc23)cc1,"inconclusive [inhibitor, partial curve]",
CS(=O)(=O)N(CC(=O)Nc1c(F)cccc1F)c1ccc(C23CC4CC(CC(C4)C2)C3)cc1,"inconclusive [inhibitor, single point]",
CNC(=O)CC1C(=O)N(c2ccc(Cl)cc2)C(=S)N1CCc1ccc(OC)c(OC)c1 (stereo not drawn),"inconclusive [inhibitor, single point]",
CS(=O)(=O)N1CCCC(C(=O)NCc2ccc(F)cc2Cl)C1 (stereo not drawn),"inconclusive [inhibitor, single point]",
CCCCN(C)C(=O)Cn1c(=O)oc2cc(S(=O)(=O)N3CC(C)CC(C)C3)ccc21 (stereo not drawn),,inactive: 0%
CC(C)C1CC(CCNCc2ccc(N(C)C)cc2)(c2ccccc2)CCO1 (stereo not drawn),"inconclusive [inhibitor, single point]",
CCOC(=O)c1nc(Nc2ccc(Nc3ccccc3)cc2)c2ccccc2n1,"inconclusive [inhibitor, single point]",
CC1(C(=O)Nc2ccc(F)cc2F)CCN1C(=O)CCC1CCCC1 (stereo not drawn),,inactive: 8.49%
CN1CCc2cccc3c2[C@H]1Cc1ccc(O)c(O)c1-3,active: 10 µM,
COc1ccc(-c2ccc(OC)c([C@H]3[C@@H]4C=CCC[C@@]4(C)C(=O)N3Cc3ccccc3)c2)cc1OC,"inconclusive [inhibitor, single point]",
CC(Cc1ccc(O)cc1)NCC(O)c1ccc(O)c(O)c1 (stereo not drawn),"inconclusive [inhibitor, partial curve]",
COc1ccc(NC(=O)c2ccc3ccccc3c2OC)cc1,,inactive: 4.56%
O=S(=O)(NCc1ccco1)c1ccc2ccccc2c1,,inactive: 2.36%
Cc1ccc(OCC(=O)N(C)CC(=O)Nc2ccc(F)cc2)c([N+](=O)[O-])n1,"inconclusive [inhibitor, single point]",
COc1cc(/C=C(\C#N)c2nc3ccccc3s2)cc([N+](=O)[O-])c1O,"inconclusive [inhibitor, single point]",
CN(C)c1ccc(CC(=O)N2CCCCC2c2cc(C(=O)Nc3cccc4c3CCCC4)no2)cc1 (stereo not drawn),"inconclusive [inhibitor, partial curve]",
Cc1ccc(C(C)C)cc1OCC(=O)Nc1ccc(N2CCCCC2)cc1,"inconclusive [inhibitor, partial curve]",
COc1ccc2c(c1)-c1c(sn(-c3ccc(OC)c(OC)c3)c1=S)C(C)(C)N2,"inconclusive [inhibitor, full curve]",
COc1cc2nc(Nc3ccc(C)c(Cl)c3)nc(N)c2cc1OC,"inconclusive [inhibitor, single point]",

SMILES,Potency,"activity change, negative = inhibition"
O=C(c1coc(=O)c(Br)c1)N1CCCc2ccccc21,"inconclusive [inhibitor, single point]",
Cc1ccc(OC(=O)c2ccc(N3CCOCC3)c([N+](=O)[O-])c2)cc1,"inconclusive [inhibitor, partial curve]",
COc1ccccc1OCCNc1cc(N2CCCCC2)ccc1[N+](=O)[O-],"inconclusive [inhibitor, single point]",
Cc1ccc(C(O)c2ncc(-c3ccccc3)[nH]2)c(C)c1 (stereo not drawn),"inconclusive [inhibitor, full curve, poor fit]",
Cc1noc(C)c1COC(=O)c1csc2c1CCCC2,,inactive: 8.06%
Cc1cc(C)n2c(Nc3c(C)cccc3C)c(-c3ccccn3)nc2n1,"inconclusive [inhibitor, single point]",
O=C(NC1CCCCC1)C(CCc1ccccc1)N1CCc2ccccc2C1 (stereo not drawn),,inactive: -1.93%
COc1ccc(CN2CCCC(C(=O)c3ccc(SC)cc3)C2)cc1Cn1cccn1 (stereo not drawn),"inconclusive [inhibitor, partial curve]",
O=C(NCCc1c[nH]c2ccccc12)OCCCCOC(=O)NCCc1c[nH]c2ccccc12,"inconclusive [inhibitor, single point]",
COCCn1c(-c2ccc(OC)cc2)cnc1SCC(=O)Nc1cccc2ccccc12,"inconclusive [inhibitor, partial curve]",
COc1ccc(CN2CCN(S(=O)(=O)c3ccc(NC(C)=O)cc3)CC2)cc1OC,"inconclusive [inhibitor, single point]",
COc1ccc(CNc2ncc(-c3cccc([N+](=O)[O-])c3)n2C)c(OC)c1OC,"inconclusive [inhibitor, partial curve]",
CC1CC(C)CN(c2oc(Cc3ccccc3)nc2C#N)C1 (stereo not drawn),"inconclusive [inhibitor, partial curve]",
O=S(=O)(Nc1ccccn1)c1ccc(C2CCCCC2)cc1,"inconclusive [inhibitor, single point]",
O=c1c2[nH]c3ccc(Br)cc3c2ncn1CCCn1ccnc1,"inconclusive [inhibitor, single point]",
O=C(N/N=C/c1ccccc1O)C(=O)N1CCCCCC1,,inactive: 19.4%
Nc1nc2nc(-c3ccc(F)cc3)cc(C(F)(F)F)n2n1,"inconclusive [inhibitor, partial curve]",
O=C(O)COc1ccc(Cl)cc1CO,"inconclusive [inhibitor, partial curve]",
O=C(NN=C(Cc1ccccc1)Cc1ccccc1)c1ccncc1,,inactive: 89.8%
COCC(C)n1c(SCC(=O)c2cc(C)n(C)c2C)nc2ccccc2c1=O (stereo not drawn),"inconclusive [inhibitor, single point]",
Cc1c(C)n(Cc2ccccc2)c2ccc(C(=O)NCCCN3CCOCC3)cc12,"inconclusive [inhibitor, single point]",
CCOC(=O)c1[nH]c(COC(=O)CCCOc2ccccc2)c(C(=O)OCC)c1C,,inactive: 7.55%
